Out of some 360,000 compounds screened, about 25,000 (6.9%) were called active. This list was built around the results that the source calls inconclusive (neither active nor inactive); the mix of calls is not that of the screen. Calls come from the whole dose curve; as a rule, active = well fitted inhibition curve with a large enough effect; inconclusive = small, poorly fitted or top-dose-only effect; inactive = flat fitted curve, though single readings scatter. Potencies beside an inconclusive call are fits to weak or partial responses and may not hold up.
Target: Luciferin 4-monooxygenase (Photinus pyralis) (UniProt P08659)
Assay: qHTS profiling assay for firefly luciferase inhibitor/activator using purifed enzyme and Km concentrations of substrates (counterscreen for miR-21 project); note: nearly all actives have a fitted effect of over 55% in size
Conditions: purified FLuc, luminescence inhibition; series mostly up to 57.5 µM
Method in brief: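 Biochemical qHTS of compounds, final roughly 60 µM downward over six points, against 10 nM purified firefly luciferase using Km concentrations of substrates (10 uM D-luciferin, 10 uM ATP) in Tris acetate pH 7.5 buffer; luminescence output.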
Potency is the fitted concentration of half-maximal effect; tags give direction and shape of the fitted curve.

UniProt P08659, sequence (P08659 whole entry, looked up): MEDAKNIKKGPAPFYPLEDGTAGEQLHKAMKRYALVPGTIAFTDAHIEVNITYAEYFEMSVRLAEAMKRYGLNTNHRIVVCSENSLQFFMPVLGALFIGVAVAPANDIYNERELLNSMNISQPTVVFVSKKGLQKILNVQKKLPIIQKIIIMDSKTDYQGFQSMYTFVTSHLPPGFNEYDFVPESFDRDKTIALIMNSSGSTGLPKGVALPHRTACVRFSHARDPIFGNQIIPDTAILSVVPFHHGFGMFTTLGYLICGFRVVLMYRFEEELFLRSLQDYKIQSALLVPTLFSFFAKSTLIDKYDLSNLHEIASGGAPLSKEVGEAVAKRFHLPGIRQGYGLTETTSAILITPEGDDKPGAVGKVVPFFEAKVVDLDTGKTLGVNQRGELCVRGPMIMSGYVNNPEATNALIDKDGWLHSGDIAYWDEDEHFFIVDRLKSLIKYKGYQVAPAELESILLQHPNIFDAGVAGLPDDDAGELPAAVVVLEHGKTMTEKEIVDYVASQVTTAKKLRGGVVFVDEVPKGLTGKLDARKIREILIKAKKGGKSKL

| Structure (SMILES) | Potency |
| --- | --- |
| COc1ccc(N2CCN(C(=O)CNC(=O)c3nn(-c4ccc(OC)cc4)c(=O)c4ccccc34)CC2)cc1 | inconclusive: 13.5 µM [inhibitor, partial curve] |
| Cc1ccc(-c2noc(-c3ccc(N4CCC(C)CC4)c([N+](=O)[O-])c3)n2)cc1 | inconclusive: 23.9 µM [inhibitor, single point] |
| CC(=O)Oc1ccc(NC(=O)CSc2ccccc2)cc1 | inconclusive: 15.1 µM [inhibitor, partial curve] |
| Cn1c(CNC(=O)CSc2n[nH]c(-c3ccccc3Cl)n2)nc2ccccc21 | inconclusive: 37.9 µM [inhibitor, single point] |
| O=C(CN1C(=O)NC2(CCCC2)C1=O)Nc1ccc(F)c(Cl)c1 | inactive |
| CCc1ccccc1NC(=O)/C(C#N)=C/c1ccc(Sc2ccccc2)o1 | inconclusive: 7.57 µM [inhibitor, partial curve, poor fit] |
| C#CCn1c(COc2ccccc2C)nc2ccccc21 | inconclusive: 2.39 µM [inhibitor, full curve] |
| Cc1ccc(NCc2ccco2)cc1C | inconclusive: 19 µM [inhibitor, partial curve] |
| COc1ccc(N2C(=O)S[C@@H]3CS(=O)(=O)C[C@@H]32)cc1 | inactive |
| Cc1ccc(S(=O)(=O)N(C)c2ccc(OC(=O)c3cccs3)cc2)cc1C | inactive |
| O=C(O)CC1(CC(=O)Nc2ccc3ccccc3c2)CCCCC1 | inconclusive: 37.9 µM [inhibitor, single point] |
| COc1cccc(C(=O)Nc2ccc(NC(=O)C(C)C)nc2)c1 | inconclusive: 15.1 µM [inhibitor, partial curve, poor fit] |
| Cc1nc2ccc(C(=O)N/N=C/c3ccc(O)cc3)cc2[nH]1 | inconclusive: 30.1 µM [inhibitor, single point] |
| O=C1CSC(=S)N1/N=C/c1ccc(O)c([N+](=O)[O-])c1 | inconclusive: 26.9 µM [inhibitor, single point] |
| Cc1oc2cc(O)cc(O)c2c(=O)c1-c1ccc2c(c1)OCCCO2 | inconclusive: 26.9 µM [inhibitor, single point] |
| Cc1ccsc1/C=N/NC(=O)c1nnn(-c2nonc2N)c1C | inconclusive: 9.53 µM [inhibitor, partial curve, poor fit] |
| CCOc1cc(C2Nc3ccccc3-c3nnc(SCc4ccccc4)nc3O2)ccc1OC (stereo unspecified) | inconclusive: 26.9 µM [inhibitor, partial curve, poor fit] |
| COCC1CCCC1OS(N)(=O)=O (stereo unspecified) | inactive |
| CCC(C(=O)Nc1ccc(C(=O)OC)cc1)n1nc(-c2ccc(C)cc2)c2c(c1=O)CCCC2 (stereo unspecified) | inactive |
| C=C(C)CSc1cc(C)c(C#N)c2nc3ccccc3n12 | inconclusive: 37.9 µM [inhibitor, partial curve, poor fit] |
| Fc1ccc(C2CC(c3cccs3)=NN2c2ccccc2)cc1 (stereo unspecified) | inconclusive: 30.1 µM [inhibitor, single point] |
| Cc1ccc(-c2nc(-c3ccc(Cl)cc3)sc2CC(=O)O)c(C)c1 | inconclusive: 21.3 µM [inhibitor, partial curve] |
| Cc1nn(CCOc2ccccc2)c(=O)n1-c1c(F)cccc1F | active: 23.9 µM |

| Structure (SMILES) | Potency |
| --- | --- |
| O=C(Nc1ccc(N2CCOCC2)nc1)c1ccccc1Cl | inconclusive: 26.9 µM [inhibitor, single point] |
| COc1ccc(OCc2nc3ccccc3n2C(C)c2ccccc2)cc1 (stereo unspecified) | inconclusive: 23.9 µM [inhibitor, partial curve] |
| Cc1ccnc(NS(=O)(=O)c2ccc(NC(=O)C(C)(C)Oc3ccc(Cl)cc3)cc2)n1 | inconclusive: 10.7 µM [inhibitor, partial curve, poor fit] |
| O=C1C2C3C=CC(C4CC34)C2C(=O)N1/N=C/c1ccc([N+](=O)[O-])o1 (stereo unspecified) | inactive |
| CCOc1cccc2cc(-c3cn4c(n3)sc3cc(C)ccc34)c(=O)oc12 | active: 0.426 µM |
| CC(C)Sc1ncc(S(=O)(=O)c2ccccc2)c(=O)[nH]1 | inconclusive: 19 µM [inhibitor, partial curve] |
| Cc1cccc2[nH]c(SCC(=O)N3CCOCC3)nc12 | inactive |
| Nc1ncc(Br)cc1N=Cc1ccccc1 | active: 3.38 µM |
| COc1cc(OC)c(C(=O)O/N=C(\N)c2cccc(C)c2)cc1OC | inconclusive: 21.3 µM [inhibitor, single point] |
| Cc1ccc(NC(=O)CN2C(=O)C(c3ccc(F)cc3)=NC23CCCCC3)c(C)c1 | inactive |
| Cc1cc(Cl)ccc1OCCCC(=O)NCc1ccncc1 | inactive |
| COc1ccc2cc(C(=O)N/N=C/c3sc4ccccc4c3O)ccc2c1 | active: 13.5 µM |
| Cc1ccc2nc(NC(=O)Cc3cccs3)sc2c1 | active: 8.49 µM |
| Cc1ccc(N=C2NC(=O)/C(=C/C=C/c3ccco3)S2)cc1 | inconclusive: 23.9 µM [inhibitor, single point] |
| O=C(Nc1ccccc1)Nc1ccc2c(c1)CCC2 | active: 2.69 µM |
| Cc1cc(C(=O)COC(=O)c2ccc(Cl)c(S(N)(=O)=O)c2)c(C)n1CC1CCCO1 (stereo unspecified) | active: 1.51 µM |
| Cc1ccc(O)c(NC(=O)CSc2n[nH]c(-c3ccccc3)n2)c1 | inconclusive: 26.9 µM [inhibitor, partial curve, poor fit] |
| COc1ccc(OC)c(C(Nc2ccccc2)P(=O)(OC(C)C)OC(C)C)c1 (stereo unspecified) | inactive |
| O=C(Nc1nnc(SCC(=O)N2CCCc3ccccc32)s1)c1ccc2ccccc2c1 | active: 1.2 µM |
| COc1cc(OC)cc(C(=O)NC2CCCN(Cc3ccc(Cl)cc3)C2)c1 (stereo unspecified) | inactive |
| CC(NC(=O)c1cc(COc2ccc3ncccc3c2)on1)c1ccc(F)cc1 (stereo unspecified) | inconclusive: 23.9 µM [inhibitor, partial curve, poor fit] |
| COc1cc2sc(NC(=O)c3ccco3)nc2cc1Cl | inconclusive: 0.601 µM [inhibitor, full curve, poor fit] |
| Cc1ccccc1CN1CCN(C(C)C(=O)NNC(=O)c2ccc(F)cc2)CC1 (stereo unspecified) | inconclusive: 26.9 µM [inhibitor, partial curve, poor fit] |

From PubChem BioAssay AID588342 (National Center for Advancing Translational Sciences (NCATS), 2011)
